# Among all 360,000 compounds or so, about 16,000 (4.4%) were called active. This list was built around the results that the source calls inconclusive (neither active nor inactive); the mix of calls is not that of the screen. Calls come from the whole dose curve; as a rule, active = well fitted inhibition curve with a large enough effect; inconclusive = small, poorly fitted or top-dose-only effect; inactive = no such curve, though single readings can be large or run the other way. Potencies beside an inconclusive call are fits to weak or partial responses and may not hold up.
# Molecular target: Bromodomain adjacent to zinc finger domain protein 2B (Homo sapiens) (UniProt Q9UIF8)
# Chain of UniProt Q9UIF8 (Q9UIF8 whole entry, looked up, the tested form may be a part): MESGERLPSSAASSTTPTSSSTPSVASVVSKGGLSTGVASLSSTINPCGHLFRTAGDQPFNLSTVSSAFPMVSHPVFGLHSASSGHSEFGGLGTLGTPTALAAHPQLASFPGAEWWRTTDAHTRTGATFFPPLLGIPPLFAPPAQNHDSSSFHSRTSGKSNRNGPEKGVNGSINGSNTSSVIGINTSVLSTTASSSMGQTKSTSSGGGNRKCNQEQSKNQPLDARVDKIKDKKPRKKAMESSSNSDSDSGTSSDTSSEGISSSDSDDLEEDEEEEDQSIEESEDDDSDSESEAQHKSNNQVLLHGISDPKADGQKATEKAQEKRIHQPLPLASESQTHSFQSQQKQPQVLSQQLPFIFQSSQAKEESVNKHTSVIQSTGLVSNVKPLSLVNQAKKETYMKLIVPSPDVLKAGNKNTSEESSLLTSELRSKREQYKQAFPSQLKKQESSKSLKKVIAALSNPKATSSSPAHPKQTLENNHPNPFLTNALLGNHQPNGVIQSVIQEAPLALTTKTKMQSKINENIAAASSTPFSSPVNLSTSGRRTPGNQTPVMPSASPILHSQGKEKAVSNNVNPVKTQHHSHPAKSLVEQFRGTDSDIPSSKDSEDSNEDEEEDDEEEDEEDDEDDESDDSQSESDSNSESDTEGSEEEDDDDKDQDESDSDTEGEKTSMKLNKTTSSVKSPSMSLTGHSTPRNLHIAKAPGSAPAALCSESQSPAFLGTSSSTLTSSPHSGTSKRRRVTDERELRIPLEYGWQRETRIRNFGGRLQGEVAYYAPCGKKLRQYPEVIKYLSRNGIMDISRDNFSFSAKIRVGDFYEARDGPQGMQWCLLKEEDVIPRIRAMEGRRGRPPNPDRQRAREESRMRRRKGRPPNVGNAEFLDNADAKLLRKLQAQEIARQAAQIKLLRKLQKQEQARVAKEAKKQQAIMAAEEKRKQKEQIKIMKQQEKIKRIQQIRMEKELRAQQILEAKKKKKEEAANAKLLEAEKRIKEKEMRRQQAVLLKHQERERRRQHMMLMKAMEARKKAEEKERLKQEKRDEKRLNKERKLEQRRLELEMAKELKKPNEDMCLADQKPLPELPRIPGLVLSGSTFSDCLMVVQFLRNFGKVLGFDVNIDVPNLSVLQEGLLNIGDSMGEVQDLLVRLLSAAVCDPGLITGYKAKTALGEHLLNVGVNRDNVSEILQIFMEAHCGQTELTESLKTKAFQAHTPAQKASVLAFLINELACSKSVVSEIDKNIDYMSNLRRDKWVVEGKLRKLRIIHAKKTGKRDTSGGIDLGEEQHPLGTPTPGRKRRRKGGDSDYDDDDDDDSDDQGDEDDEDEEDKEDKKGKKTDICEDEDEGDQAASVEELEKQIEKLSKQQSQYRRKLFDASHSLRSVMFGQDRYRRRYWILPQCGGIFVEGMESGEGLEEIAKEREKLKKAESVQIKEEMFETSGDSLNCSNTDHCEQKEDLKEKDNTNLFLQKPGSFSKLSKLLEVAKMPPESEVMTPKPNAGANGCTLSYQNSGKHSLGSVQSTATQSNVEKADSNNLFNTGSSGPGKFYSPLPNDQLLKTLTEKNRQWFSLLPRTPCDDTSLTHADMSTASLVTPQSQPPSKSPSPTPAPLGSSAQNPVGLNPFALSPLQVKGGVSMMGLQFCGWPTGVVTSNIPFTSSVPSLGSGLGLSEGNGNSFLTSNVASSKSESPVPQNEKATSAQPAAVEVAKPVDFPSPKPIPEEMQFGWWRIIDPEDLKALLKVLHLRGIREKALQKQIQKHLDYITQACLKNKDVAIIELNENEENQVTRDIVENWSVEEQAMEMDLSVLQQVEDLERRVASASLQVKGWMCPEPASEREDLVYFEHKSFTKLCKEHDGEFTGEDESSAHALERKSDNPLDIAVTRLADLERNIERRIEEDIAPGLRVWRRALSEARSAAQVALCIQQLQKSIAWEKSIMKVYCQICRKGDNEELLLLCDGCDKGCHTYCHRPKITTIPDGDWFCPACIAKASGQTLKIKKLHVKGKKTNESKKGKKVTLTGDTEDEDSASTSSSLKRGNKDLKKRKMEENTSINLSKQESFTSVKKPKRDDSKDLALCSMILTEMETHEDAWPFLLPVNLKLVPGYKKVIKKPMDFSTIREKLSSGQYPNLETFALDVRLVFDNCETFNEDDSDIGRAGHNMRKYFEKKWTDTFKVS
# Assay: qHTS Assay for Inhibitors of BAZ2B; note: nearly all actives have a fitted effect of over 60% in size
# Settings: AlphaScreen BAZ2B-H3K14Ac peptide displacement; series mostly up to 114 µM
# Outline: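 Inhibition is scored as reduced AlphaScreen emission. The BAZ2B/b-H3(5-23)K14Ac complex (50 nM each) in PBS pH 7.4, 0.01% Tween-20 meets compound (up to 110 uM) for 30 min at RT before bead addition.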
# Potency is the fitted concentration of half-maximal effect; tags give direction and shape of the fitted curve.
row,SMILES,Potency
1,Cc1ccc(C)c(NS(=O)(=O)c2cc3c(cc2Cl)NC(=O)CO3)c1,"inconclusive: 31.6 µM [inhibitor, full curve, poor fit]"
2,COc1ccc(N2CCN(S(=O)(=O)c3ccc4c(c3)CCCC4)CC2)c([N+](=O)[O-])c1,"inconclusive: 6.31 µM [inhibitor, full curve]"
3,Cc1ccc(NC(=O)C(=O)NCC(c2cccnc2)N2CCc3ccccc32)cc1Cl (centres undefined),inactive
4,COc1ccc(C(=O)/C(=C/O)N=Nc2ccc(F)cc2)cc1,active: 31.6 µM
5,Cc1cccc(C)c1-n1cccc1/C=C1\SC(=S)N(c2cccc(C(=O)O)c2)C1=O,active: 50.1 µM
6,CCOc1ccccc1NC(=O)CN1C(=O)C2(SCC(=O)N2c2cccc(F)c2)c2ccccc21 (centres undefined),inactive
7,Cc1cc(C)n(-c2nc3ccccc3nc2Nc2cc(C(=O)O)ccc2C)n1,inactive
8,Cc1ccc(NCCC(=O)c2cccs2)cc1C,"inconclusive: 39.8 µM [inhibitor, partial curve]"
9,O=C(Nc1ccc2c(c1)OCO2)C1CCN(C(=O)CSc2ncnc3ccccc23)CC1,"inconclusive: 50.1 µM [inhibitor, partial curve]"
10,Cc1ccc(CN2CCN(CC(=O)NCc3ccccc3Cl)C2=O)cc1,inactive
11,O=[N+]([O-])c1cc(/C=N\Nc2nccs2)ccc1O,active: 3.98 µM
12,CNC(=S)N1N=C(c2ccc(C)cc2)CC1c1ccc(N(C)C)cc1 (centres undefined),active: 10 µM
13,Fc1ccc(CN2CCSCC2)cc1Br,active: 50.1 µM
14,Cc1ccc(Cn2ccn(Cc3ccccc3C)c(=O)c2=O)cc1,"inconclusive: 56.2 µM [inhibitor, partial curve, poor fit]"
15,O=S(=O)([O-])CCC[n+]1c(/C=C\Nc2ccccc2)oc2ccc(-c3ccccc3)cc21,active: 79.4 µM
16,CN1CCN(C2=Nc3c(Cl)cc(Cl)c4cccc2c34)CC1,active: 28.2 µM
17,CCOC(=O)c1c(-c2ccco2)csc1NC(=O)CSc1nnc(N)s1,"inconclusive: 50.1 µM [inhibitor, partial curve]"
18,Cc1c(NC(=O)/C=C/c2cn(-c3ccccc3)nc2-c2ccc(F)cc2)c(=O)n(-c2ccccc2)n1C,"inconclusive: 89.1 µM [inhibitor, single point]"
19,COc1ccc(OC)c(C2=NS(=O)(=O)N(C)C(C(=O)Nc3cccc(C(C)=O)c3)=C2)c1,"inconclusive: 44.7 µM [inhibitor, partial curve]"
20,CC(=O)N1CCN(c2ccc(Oc3ccc([N+](=O)[O-])c(C(F)(F)F)c3)cc2)CC1,"inconclusive: 50.1 µM [inhibitor, partial curve]"
21,Cn1cccc1/C=N\NC(=O)C1COc2ccccc2O1 (centres undefined),"inconclusive: 44.7 µM [inhibitor, partial curve]"
22,Cn1c(=O)c2c(nc(CN3CCOCC3)n2CCc2ccccc2)n(C)c1=O,inactive
23,NS(=O)(=O)c1ccc(-c2cccc(/C=C3\SC(=O)NC3=O)c2)cc1,"inconclusive: 89.1 µM [inhibitor, single point]"
24,N#Cc1c(-c2ccccc2)c(-c2ccccc2)nn(CC(=O)NNC(=O)Nc2ccccc2)c1=O,"inconclusive: 14.1 µM [inhibitor, partial curve]"
25,CC1=C(C(=O)O)N2C(=O)C(NC(=O)c3ccccc3Cl)C2SC1 (centres undefined),inactive

row,SMILES,Potency
1,CCc1nnc(N/N=C/c2cc(Br)c(O)cc2O)n1N,active: 50.1 µM
2,COC(=O)N/N=C/c1cn(CCOc2ccc(OC)cc2)c2ccccc12,"inconclusive: 50.1 µM [inhibitor, partial curve]"
3,CCC(=Nc1ccccc1O)C1=C(O)CC(c2ccccc2)CC1=O (centres undefined),inactive
4,COc1ccc(NC(=O)C(OC(=O)c2ccc([N+](=O)[O-])o2)c2ccccc2)cc1Cl (centres undefined),"inconclusive: 44.7 µM [inhibitor, partial curve]"
5,COc1ccc(-c2nc(C(=O)NCC3CCCO3)cc3c2[nH]c2ccccc23)cc1 (centres undefined),"inconclusive: 89.1 µM [inhibitor, single point]"
6,CN(C)c1ccc(N/C=C/C(=O)c2ccccc2)cc1,"inconclusive: 39.8 µM [inhibitor, partial curve]"
7,C/C(=N\NC(=O)C1CCCN(S(=O)(=O)c2ccccc2)C1)c1ccccn1 (centres undefined),"inconclusive: 89.1 µM [inhibitor, single point]"
8,Cc1nn(-c2ccccc2)c(C)c1C(=O)OC(C)C(=O)NC1CCCCC1C (centres undefined),inactive
9,COc1cccc(C(=O)OCCNC(=O)c2cccnc2)c1,inactive
10,CC(C)OC(=O)c1c(NC(=O)C2CC=CCC2C(=O)O)sc2c1CCCCC2 (centres undefined),"inconclusive: 50.1 µM [inhibitor, partial curve]"
11,COc1ccc(N2CCN(C(=O)c3ccc4c(c3)CC(c3ccccc3)OC4=O)CC2)cc1 (centres undefined),active: 39.8 µM
12,COC(=O)CCc1c(C)c(C(=O)c2ccco2)c2ccccn12,"inconclusive: 89.1 µM [inhibitor, single point]"
13,Cc1nc(NCc2ccccc2)sc1C(=O)Nc1ccccc1,"inconclusive: 79.4 µM [inhibitor, single point]"
14,COc1ccc(-n2ncc3c(NCCC4=CCCCC4)ncnc32)cc1,inactive
15,Cc1cnc(C(=O)OC(C)C(=O)Nc2ccc(Oc3ccccc3)cc2)cn1 (centres undefined),inactive
16,O=C(Nc1ncc(Cc2cc(Cl)ccc2Cl)s1)c1ccc([N+](=O)[O-])cc1,"inconclusive: 20 µM [inhibitor, full curve, poor fit]"
17,O=[N+]([O-])c1cc(CN2CCCC2)ccc1Sc1ccc(Cl)cc1,active: 39.8 µM
18,COc1ccc(Cn2c(C(=O)O)c(CNC3CCCCCC3)c3ccc(OC)cc32)cc1,"inconclusive: 50.1 µM [inhibitor, partial curve]"
19,Cn1cc(/C=C/c2nc3ccccc3c(=O)n2-c2cccc([N+](=O)[O-])c2)c2ccccc21,"inconclusive: 79.4 µM [inhibitor, single point]"
20,CCOc1cc(/C=N/NC(=O)c2ccc(O)cc2)ccc1Oc1nc(Cl)ncc1F,"inconclusive: 89.1 µM [inhibitor, single point]"
21,c1ccc(CNc2ccc3c(c2)ncn3C2CCCCC2)nc1,active: 20 µM
22,Cc1ccc(-c2nnc3n2CCCCC3)cc1,"inconclusive: 89.1 µM [inhibitor, single point]"
23,CC1=CC(C)(C)Nc2ccc(OC(=O)c3ccco3)cc21,active: 50.1 µM
24,Cc1cc(C)c(S(=O)(=O)/N=C2/C=C(Sc3ncn[nH]3)C(=O)c3ccccc32)cc1C,active: 44.7 µM
25,CCOC(=O)c1nn(-c2ccc(Cl)cc2)c2nc(CC)c(C#N)c(=O)n12,"inconclusive: 89.1 µM [inhibitor, single point]"

row,SMILES,Potency
1,CCn1ccnc1CN1CCCC(CO)(Cc2cccc(OC)c2)C1 (centres undefined),active: 89.1 µM
2,CCCN(C(=O)c1cccc(-n2cccc2)c1)c1c(N)n(Cc2ccccc2)c(=O)[nH]c1=O,active: 50.1 µM
3,CC1CCc2[nH]c3ccc(C(=O)N(C)CC(=O)Nc4ccccc4C(F)(F)F)cc3c2C1 (centres undefined),active: 50.1 µM
4,CNc1ccccc1C(=O)OCC(=O)N1CCN(c2ccc(OC)cc2)CC1,"inconclusive: 50.1 µM [inhibitor, partial curve]"
5,CCN(C(=O)CSc1nnc(-c2ccncc2)n1C)C1CCS(=O)(=O)C1 (centres undefined),"inconclusive: 89.1 µM [inhibitor, single point]"
6,OCCNc1nc(Nc2ccc(O)cc2)nc2ccccc12,"inconclusive: 70.8 µM [inhibitor, partial curve, poor fit]"
7,Cc1cccc(N2CC(C)Cn3c2nc2c3c(=O)n(CC(=O)OCc3ccccc3)c(=O)n2C)c1 (centres undefined),"inconclusive: 22.4 µM [inhibitor, partial curve]"
8,CSCC[C@H](N)C(=O)N1CCC(C(=O)N[C@H](C(=O)NCc2ccccc2F)C(C)C)CC1,inactive
9,S=C(NC1CCCCC1)N1CCn2cccc2C1c1cccnc1 (centres undefined),"inconclusive: 39.8 µM [inhibitor, partial curve]"
10,Cc1cnc(CNC(=O)C2CCC(=O)N(CCc3ccc(Cl)cc3)C2)cn1 (centres undefined),inactive
11,CC(NC(=O)Nc1cc(Cl)ccc1Cl)c1c(-n2cccc2)sc2c1CCCC2 (centres undefined),inactive
12,CCCCc1ccccc1NC(=S)NC1CCCC1,"inconclusive: 79.4 µM [inhibitor, single point]"
13,CCOC(=O)C1(Cc2ccccc2)CCN(Cc2ccc3cc(NC(C)=O)ccc3n2)CC1,"inconclusive: 79.4 µM [inhibitor, single point]"
14,CCN(CC)c1ccc(C(=O)N2CCC(c3c[nH]c4ccccc34)(c3c[nH]c4ccccc34)CC2)cc1,"inconclusive: 17.8 µM [inhibitor, full curve]"
15,Oc1c(C=NCc2ccncc2)sc2ccccc12,"inconclusive: 79.4 µM [inhibitor, single point]"
16,CCCCC(c1nnnn1CC1CCCO1)N1CCN(c2nc3ccccc3s2)CC1 (centres undefined),active: 50.1 µM
17,CSc1nsc(SCC(=O)Nc2ccc(NC(C)=O)cc2)n1,inactive
18,CCSc1ccccc1C(=O)NCc1ccco1,inactive
19,COc1ccc(-n2c(NCCN(C)C)nc3sc4c(c3c2=O)CCCCC4)cc1,"inconclusive: 79.4 µM [inhibitor, single point]"
20,S=c1[nH]cnc2sc(-c3ccccc3)cc12,inactive
21,O=C(COC(=O)c1ccc(Cl)cc1O)NC(=O)C1CCCCC1,inactive
22,Cc1ccc(C(=O)NC(C(=O)NC2CCCC2)c2ccccc2)cc1 (centres undefined),inactive
23,Fc1cccc(NC(=S)NC2CCCCCCC2)c1,inactive
24,Cc1ccc(NC(=O)N2CCc3cc(S(=O)(=O)N4CCC(C)CC4)ccc32)cc1C,inactive

# Reference: PubChem BioAssay AID504333 (National Center for Advancing Translational Sciences (NCATS), 2011)
